Source: the supplement of paper PMC7826260
The list shows a part of the results. Cleavage of a single-stranded DNA pool by Rep nickase domains was read by sequencing for 1 h at 37 °C with 3 µM enzyme; only the middle of the 90-letter strands is printed. The score is log2 (uncut reads / reads without enzyme); uncut sequences lie near 0, cut ones below; no hit call is given. Shares of all reads are compared; where an enzyme cuts many sequences, the uncut ones exceed 0.

Columns and labels:
Test in all cases: uncleaved DNA left, log2 of reads against the no-enzyme library (log2 ratio); higher = less cleavage (more negative = more Rep cleavage of the k-mer); sequences stand for … in CTCGTCCG…ACCGGAGA
[1] = test system: T1, Rep nickase domain of Muscovy duck circovirus
T1 sequence (Rep 1-111, printed without the tag): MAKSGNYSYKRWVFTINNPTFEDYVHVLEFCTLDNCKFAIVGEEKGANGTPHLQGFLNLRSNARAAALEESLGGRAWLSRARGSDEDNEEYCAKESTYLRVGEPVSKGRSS
Procedure: (§1)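 A pool of 90-nt single-stranded DNAs with seven random bases just before the constant AC of the nick site (name = the seven bases) was cut by 3 µM recombinant His6-SUMO-tagged Rep nickase domain (300 nM DNA, 50 mM HEPES pH 8.0, 50 mM NaCl, 1 mM MnCl2, 1 h, 37 °C, three replicates). Uncut DNA was amplified and sequenced.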

[2] = test system: T2, Rep nickase domain of banana bunchy top virus
T2 sequence (Rep 1-94, printed without the tag): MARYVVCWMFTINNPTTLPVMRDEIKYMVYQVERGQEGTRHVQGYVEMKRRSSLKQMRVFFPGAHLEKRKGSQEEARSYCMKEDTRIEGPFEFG
Procedure: as §1

[3] = test system: T3, Rep nickase domain of cabbage leaf curl virus
T3 sequence (Rep 1-116, printed without the tag): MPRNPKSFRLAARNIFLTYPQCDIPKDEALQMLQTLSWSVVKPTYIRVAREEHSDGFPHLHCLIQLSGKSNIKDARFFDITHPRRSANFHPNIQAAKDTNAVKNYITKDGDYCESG
Procedure: as §1

[4] = test system: T4, Rep nickase domain of chickpea chlorotic dwarf virus
T4 sequence (Rep 1-124, printed without the tag): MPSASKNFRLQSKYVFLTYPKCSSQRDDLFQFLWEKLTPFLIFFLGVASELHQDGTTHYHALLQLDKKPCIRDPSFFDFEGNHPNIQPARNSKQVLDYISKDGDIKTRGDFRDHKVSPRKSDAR
Procedure: as §1

[5] = test system: T5, Rep nickase domain of faba bean necrotic yellows virus
T5 sequence (Rep 1-98, printed without the tag): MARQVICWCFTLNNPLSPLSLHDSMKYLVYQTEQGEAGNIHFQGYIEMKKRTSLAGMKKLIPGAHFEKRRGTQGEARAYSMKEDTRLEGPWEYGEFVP
Procedure: as §1

[6] = test system: T6, Rep nickase domain of maize striate mosaic virus
T6 sequence (Rep 1-117, printed without the tag): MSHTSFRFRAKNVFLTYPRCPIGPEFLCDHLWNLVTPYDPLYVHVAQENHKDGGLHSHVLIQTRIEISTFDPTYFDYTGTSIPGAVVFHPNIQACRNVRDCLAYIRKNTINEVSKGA
Procedure: as §1

[7] = test system: T7, Rep nickase domain of porcine circovirus 2
T7 sequence (Rep 2-116, printed without the tag): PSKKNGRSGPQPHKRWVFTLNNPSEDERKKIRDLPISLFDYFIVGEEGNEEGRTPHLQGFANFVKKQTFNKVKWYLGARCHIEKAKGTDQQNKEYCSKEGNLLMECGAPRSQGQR
Procedure: as §1

[8] = test system: T8, Rep nickase domain of tomato golden mosaic virus
T8 sequence (Rep 1-124, printed without the tag): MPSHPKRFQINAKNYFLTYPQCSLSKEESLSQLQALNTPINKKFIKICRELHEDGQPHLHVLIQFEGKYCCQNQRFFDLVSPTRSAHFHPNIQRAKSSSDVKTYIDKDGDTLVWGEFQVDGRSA
Procedure: as §1

[9] = test system: T9, Rep nickase domain of tomato yellow leaf curl virus
T9 sequence (Rep 1-136, printed without the tag): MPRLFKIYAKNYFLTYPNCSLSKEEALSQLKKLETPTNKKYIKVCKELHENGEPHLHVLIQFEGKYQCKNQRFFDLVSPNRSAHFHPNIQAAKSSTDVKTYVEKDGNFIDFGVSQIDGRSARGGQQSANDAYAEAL
Procedure: as §1

[10] = test system: T10, Rep nickase domain of wheat dwarf virus
T10 sequence (Rep 1-137, printed without the tag): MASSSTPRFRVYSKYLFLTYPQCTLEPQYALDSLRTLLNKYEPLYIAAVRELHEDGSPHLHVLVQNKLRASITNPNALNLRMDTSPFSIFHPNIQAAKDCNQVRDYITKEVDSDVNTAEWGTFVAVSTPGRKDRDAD
Procedure: as §1

Sequence	uncleaved DNA left (log2) [1]	uncleaved DNA left (log2) [2]	uncleaved DNA left (log2) [3]	uncleaved DNA left (log2) [4]	uncleaved DNA left (log2) [5]	uncleaved DNA left (log2) [6]	uncleaved DNA left (log2) [7]	uncleaved DNA left (log2) [8]	uncleaved DNA left (log2) [9]	uncleaved DNA left (log2) [10]
TTAACCC	-0.379	-0.0901	-0.0655	-1.76	-0.117	-0.302	-1.21	-0.177	-0.0101	-0.0347
TCACATG	-0.0576	0.0838	-0.486	-0.658	-0.0897	-1.01	0.0768	-0.0493	-0.0715	-0.135
GACCGTG	-0.127	-0.101	-0.514	-0.539	-0.127	-0.851	-0.0586	-0.127	-0.0733	-0.165
TCATGGC	-0.0978	-0.048	-0.674	-0.776	-0.00508	-1.09	0.189	0.000502	0.109	-0.145
TTCTGTT	-3.17	-0.686	-2.25	-2.55	-0.239	-0.884	-3.66	-0.304	-0.0273	-0.636
CGATAGG	0.157	0.14	-0.0438	0.595	0.15	0.375	0.0562	0.16	0.0725	-0.0441
GGAAATG	0.155	0.139	0.672	1.61	0.0547	1.7	0.249	-0.0172	-0.00963	0.0748
ATCACTA	-0.0812	-0.0259	-0.201	-1.39	-0.0851	-0.761	-0.227	-0.0145	-0.108	-0.0437
GGACCAT	0.0615	0.0433	0.882	1.93	-0.0654	2.3	0.142	-0.0633	0.0536	0.212
CCGCCCC	-0.0946	-0.12	0.0378	-0.0449	-0.116	-0.239	-0.262	-0.102	-0.099	-0.153
ACAGACT	-0.113	-0.0108	-0.256	-1.92	0.0215	-0.116	-0.0205	0.00467	-0.067	-0.0882
ATGGCGT	0.0751	-0.131	-0.851	-0.303	-0.114	-0.703	0.0619	-0.0609	-0.118	-0.189
AGCTATT	-3.49	-1.54	-2.42	-2.59	-0.245	0.301	-3.79	-0.507	-0.0119	-2.23
CTGGACT	-0.0205	0.0124	0.496	1.01	0.0392	1.74	0.0882	-0.0904	0.0647	0.113
TAGCATG	0.0011	-0.108	-0.0397	0.377	-0.0496	0.423	0.18	-0.0245	-0.283	-0.0512
AGGGCAC	0.0472	0.149	0.641	1.47	-0.0481	1.59	0.221	0.0433	0.019	0.128
AGCGATA	0.0556	0.102	-0.0663	0.556	0.0818	1.38	-0.139	0.142	6.59e-05	0.0373
CAACAAA	0.169	0.152	0.00984	-1.33	0.262	-0.448	0.0443	0.257	0.122	0.0777
GGGACAA	0.0846	0.16	0.987	2.24	-0.0197	2.39	0.223	-0.0364	-0.161	0.235
AGCCTGG	0.0735	0.0777	0.102	0.49	0.183	0.754	0.211	0.0807	0.0313	0.132

Sequence	uncleaved DNA left (log2) [1]	uncleaved DNA left (log2) [2]	uncleaved DNA left (log2) [3]	uncleaved DNA left (log2) [4]	uncleaved DNA left (log2) [5]	uncleaved DNA left (log2) [6]	uncleaved DNA left (log2) [7]	uncleaved DNA left (log2) [8]	uncleaved DNA left (log2) [9]	uncleaved DNA left (log2) [10]
CGGAAAG	0.105	0.212	-0.274	0.0988	0.105	-0.605	0.283	0.107	0.246	0.137
ACCTCCA	-0.0303	0.0695	-0.136	-0.519	0.00885	0.335	-0.221	0.0597	-0.122	0.0674
AATACTC	-0.083	-0.0142	-0.0327	-1.16	-0.086	-0.537	-0.107	-0.11	-0.0782	-0.004
TGCTCTT	-2.09	-0.181	-0.0417	-1.94	0.0313	-0.0992	-2.79	-0.174	-0.0835	-0.0561
ATCATTG	0.045	-0.0123	-0.726	-0.67	0.0613	-1.14	0.213	-0.0848	-0.0947	-0.16
CTTTGAC	-0.143	-0.0822	-0.217	-0.528	-0.0244	-0.922	-0.12	-0.0929	-0.111	-0.0487
GGTTTTG	0.263	0.15	0.227	0.338	0.0732	0.23	0.222	0.229	0.151	0.187
CGTTCTT	-2.48	-0.29	-0.0679	-1.44	0.0693	0.085	-2.73	-0.185	-0.000335	-0.116
CCCGTCA	-0.181	-0.0612	0.0331	-0.345	-0.14	-0.0804	-0.283	-0.0696	-0.25	-0.0994
ATCAATG	0.027	-0.0169	-0.623	-0.513	-0.0449	-1.16	0.0223	0.0542	0.0228	-0.0732
CGCGAAC	0.097	0.0287	-0.154	-0.109	0.0777	-0.443	0.228	-0.0268	0.0139	0.0246
TGACTCT	-0.00416	-0.161	0.0744	-0.947	-0.0201	0.307	-0.156	-0.229	-0.16	-0.168
AGGGGCA	0.164	0.0385	0.797	1.78	0.0887	2.03	0.355	0.187	0.0999	0.264
CGCGGGA	0.0665	-0.0221	0.253	0.332	-0.0442	0.406	0.0792	0.0543	0.0258	-0.013
GGGCGGC	0.0739	-0.0338	0.825	1.73	-0.0887	2.17	0.198	0.0245	-0.0318	0.0759
AGTTTCA	-0.0851	0.0233	0.105	-0.668	-0.0849	0.286	-0.683	0.0147	0.0923	0.0192
ATAGAGG	0.0883	0.0811	0.213	0.737	0.177	0.0446	0.183	0.111	0.00909	0.0576
ATGAACA	0.122	0.0985	-0.13	-1.71	0.0324	-0.526	-0.0633	0.101	0.0715	-0.0112
GCAATTT	-0.0862	-0.0427	-0.115	-1.65	-0.00564	-0.341	-0.0694	-0.0744	-0.0166	-0.139
GTCCGTT	-0.0985	-0.144	0.15	0.413	-0.171	1.19	-0.155	-0.0734	0.0342	-0.0223

Sequence	uncleaved DNA left (log2) [1]	uncleaved DNA left (log2) [2]	uncleaved DNA left (log2) [3]	uncleaved DNA left (log2) [4]	uncleaved DNA left (log2) [5]	uncleaved DNA left (log2) [6]	uncleaved DNA left (log2) [7]	uncleaved DNA left (log2) [8]	uncleaved DNA left (log2) [9]	uncleaved DNA left (log2) [10]
TGAGCTA	0.038	-0.0171	0.0252	-0.0148	-0.00341	0.403	-0.484	0.136	0.0239	0.0279
AGGAATA	0.131	0.184	0.115	0.458	0.0709	0.95	0.08	0.168	0.127	0.262
CTGTGAT	-0.0803	0.0223	0.329	1.23	-0.0981	1.62	-1.42	0.125	0.0113	0.0444
GCTACCC	-0.0567	0.0741	0.0278	-0.33	0.0189	0.263	-0.525	0.026	0.0702	0.04
GTTTAAC	0.0568	0.142	0.335	0.684	0.0119	1.71	0.0688	0.123	0.0829	0.067
ATAAACG	0.0241	0.0806	-0.684	0.183	0.133	-0.859	0.245	0.0966	0.0661	-0.0343
CGTCAGC	-0.0291	0.133	0.412	0.789	0.114	0.56	0.21	0.0804	0.151	0.161
AAGCACC	0.0696	-0.0508	0.0728	-0.227	0.116	-0.247	-0.0385	-0.0124	-0.00696	0.00488
CCGCCGG	0.115	0.0307	0.515	1.02	0.134	1.33	0.115	0.0904	-0.0362	-0.114
GTATCCA	0.00671	0.0603	0.323	0.798	0.0395	1.61	0.0194	0.0186	0.089	0.104
GACTGAG	0.026	-0.0935	-0.342	-0.287	-0.0523	-0.898	0.0955	-0.0601	0.00701	-0.142
AGACCTC	0.0671	-0.0243	0.667	1.42	-0.024	1.72	0.0653	0.0882	0.0448	0.125
TTCCCAC	0.0482	-0.0131	0.178	-0.111	-0.101	-0.224	-0.26	-0.0769	0.0652	0.0994
TCAGTAG	0.14	-0.0453	-0.623	-0.523	-0.028	-1.05	0.215	0.0427	0.0543	-0.0438
TAAATAA	-0.00886	-0.0433	-0.838	-2.49	-0.0529	-0.701	0.0244	-0.0521	-0.0552	-0.378
GCCTGGA	-0.0875	-0.126	0.00415	0.416	-0.071	0.128	0.025	-0.0537	-0.0471	-0.134
AGTACTG	0.0164	0.00488	0.0228	0.708	-0.0131	1.7	0.0797	-0.0355	-0.0418	0.0694
CCGCATA	0.0868	-0.0126	0.00597	-0.691	-0.199	-0.426	-0.165	0.171	0.0776	-0.0786
CGGCGGT	0.0827	-0.192	-0.0028	0.298	-0.0384	0.453	0.0686	0.0487	-0.183	-0.0822
CGGAAAC	-0.0479	0.0251	0.219	0.429	-0.0133	0.195	0.0353	-0.149	0.0484	0.116
